{"source": "PubChem BioAssay AID651740", "about": "(Broad Institute, 2012)", "note": "In all, about 5,600 compounds went through this assay and about 1,200 (21%) were called active. Inconclusive results, whose numbers are uncertain, are shown with a selection of clear calls.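 Rule for the calls: active = mean inhibition above about 95%, with at least 55% of replicates also reaching it (limit read from the data); inconclusive = meets just one of the two conditions; inactive = meets neither condition.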"}
{"assay": "Trypanosoma cruzi growth blockers in host fibroblasts – NIH3T3 host cells, beta-gal parasites, cherry-pick, set 2, confirmation (AID 651740);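 note: plate controls were neutral control median for no effect and positive control median for full effect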", "details": "T. cruzi beta-gal in NIH3T3, GalScreen luminescence, 90 h; at 2.09 µM; hits give high values", "procedure,_shortened": "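Material: T. cruzi Tulahuen C4 (beta-gal) in NIH/3T3 cells | Schedule: Host attachment 3 h, co-culture ≥90 h, lysis 60 min | Signal: GalScreen lysis and luminescent beta-gal signal | Also added: 5000 beta-gal T. cruzi trypomastigotes per well | Compound: Single point, 100 nL compound in DMSO pinned per well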"}
{"smiles": "C[C@H]1CN([C@@H](C)CO)C(=O)c2cc(NC(=O)Nc3ccc4c(c3)OCO4)ccc2O[C@H]1CN(C)Cc1ccc(C(=O)Nc2ccccc2N)cc1", "inhibition": "inactive: 78.7%"}
{"smiles": "COc1ccc(NC(=O)N2CCCCN3[C@@H](CO)[C@H](c4ccc(-c5ccccc5C)cc4)[C@@H]3C2)cc1", "inhibition": "inactive: 65.6%"}
{"smiles": "C[C@@H]1CN([C@H](C)CO)C(=O)c2cccc(NC(=O)c3nc4ccccc4s3)c2O[C@H]1CN(C)C(=O)Nc1ccc(C(F)(F)F)cc1", "inhibition": "inconclusive: 97.5%"}
{"smiles": "C[C@@H]1CCCCO[C@H](CN(C)S(=O)(=O)c2ccc(F)cc2)[C@H](C)CN([C@H](C)CO)C(=O)c2cc(NS(=O)(=O)c3ccc(F)cc3)ccc2O1", "inhibition": "inconclusive: 97.3%"}
{"smiles": "Cc1ccc(S(=O)(=O)N(C)C[C@H]2OCCCC[C@H](C)Oc3ccc(NS(=O)(=O)c4ccccc4)cc3C(=O)N([C@@H](C)CO)C[C@@H]2C)cc1", "inhibition": "inactive: 50.1%"}
{"smiles": "COc1cccc(-c2ccc3c(c2)O[C@@H](CN(C)C(=O)C2CCC2)[C@H](C)CN([C@@H](C)CO)S3(=O)=O)c1", "inhibition": "inconclusive: 97.3%"}
{"smiles": "C[C@@H]1CCCCO[C@@H](CN(C)Cc2ccc(C(F)(F)F)cc2)[C@H](C)CN([C@@H](C)CO)C(=O)c2cc(NC(=O)C3CCCCC3)ccc2O1", "inhibition": "active: 112%"}
{"smiles": "COc1ccc(S(=O)(=O)Nc2ccc3c(c2)C(=O)N([C@H](C)CO)C[C@H](C)[C@H](CN(C)Cc2ccc4c(c2)OCO4)OCCCC[C@H](C)O3)cc1", "inhibition": "inconclusive: 95.7%"}
{"smiles": "C[C@@H]1CN([C@H](C)CO)S(=O)(=O)c2ccc(-c3ccncc3)cc2O[C@H]1CN(C)Cc1ccccn1", "inhibition": "inconclusive: 96.9%"}
{"smiles": "O=C(Nc1ccc(F)cc1)N1CCCCN2[C@H](CO)[C@@H](c3ccc(-c4ccccc4F)cc3)[C@H]2C1", "inhibition": "inconclusive: 97.8%"}
{"smiles": "COc1ccc(C#Cc2ccc3c(c2)[C@@H]2[C@@H](CCN2C(=O)c2ccccc2F)[C@H](CO)N3C)cc1", "inhibition": "inconclusive: 95%"}
{"smiles": "COc1ccc(NC(=O)Nc2ccc3c(c2)C(=O)N([C@H](C)CO)C[C@H](C)[C@H](CN(C)Cc2ccc(Cl)c(Cl)c2)OCCCC[C@H](C)O3)cc1", "inhibition": "active: 114%"}
{"smiles": "COc1ccccc1NC(=O)N1CC[C@H]2[C@@H]1c1cc(-c3ccc(F)cc3)ccc1N(C)[C@H]2CO", "inhibition": "inconclusive: 102%"}
{"smiles": "N#C[C@@H]1[C@@H](c2ccc(C#CC3CCCC3)cc2)[C@@H](CO)N1S(=O)(=O)c1ccccc1", "inhibition": "inconclusive: 98.3%"}
{"smiles": "C[C@@H]1CN([C@@H](C)CO)S(=O)(=O)c2ccc(/C=C/c3ccccc3)cc2O[C@H]1CN(C)C(=O)Nc1cccc(F)c1", "inhibition": "active: 97.2%"}
{"smiles": "CO[C@@H]1CN(C)C(=O)c2ccc(NC(=O)c3nc4ccccc4s3)cc2OC[C@@H](C)N(Cc2cccnc2)C[C@@H]1C", "inhibition": "inconclusive: 95.6%"}
{"smiles": "Cc1ccc(S(=O)(=O)N(C)C[C@H]2OCCCC[C@@H](C)Oc3ccc(NS(=O)(=O)c4ccc(Cl)cc4)cc3C(=O)N([C@@H](C)CO)C[C@@H]2C)cc1", "inhibition": "active: 119%"}
{"smiles": "C[C@@H]1CN([C@H](C)CO)C(=O)Cc2cc(NS(=O)(=O)c3ccc(Cl)cc3)ccc2O[C@H]1CN(C)CC1CCCCC1", "inhibition": "inconclusive: 95.8%"}
{"smiles": "CNC[C@H]1Oc2cc(C#Cc3ccc(OC)cc3)ccc2S(=O)(=O)N([C@H](C)CO)C[C@@H]1C", "inhibition": "inconclusive: 97.6%"}
{"smiles": "CCc1cnc(N2[C@@H](C#N)[C@H](c3ccc(C#CCC4CCCC4)cc3)[C@@H]2CO)s1", "inhibition": "inconclusive: 97.6%"}
{"smiles": "C[C@H](CO)N1C[C@H](C)[C@H](CN(C)S(=O)(=O)c2ccc(Cl)cc2)Oc2ccc(NS(=O)(=O)c3ccc(F)cc3)cc2C1=O", "inhibition": "inactive: 44.9%"}
{"smiles": "CC(C)CC#Cc1ccc2c(c1)O[C@@H](CN(C)C(=O)Nc1ccccc1F)[C@@H](C)CN([C@H](C)CO)S2(=O)=O", "inhibition": "inconclusive: 95.4%"}
{"smiles": "C[C@@H]1CCCCO[C@@H](CN(C)C(=O)Nc2ccc(F)cc2)[C@H](C)CN([C@H](C)CO)C(=O)c2cc(NC(=O)Nc3cccc4ccccc34)ccc2O1", "inhibition": "inconclusive: 95.8%"}
{"smiles": "N#C[C@H]1[C@@H](c2ccc(/C=C/c3ccccc3)cc2)[C@@H](CO)N1C(=O)C1CCCCC1", "inhibition": "inconclusive: 95.7%"}
{"smiles": "Cc1ccc(S(=O)(=O)N(C)C[C@H]2OCCCC[C@@H](C)Oc3ccc(NS(=O)(=O)c4ccc(F)cc4)cc3C(=O)N([C@H](C)CO)C[C@H]2C)cc1", "inhibition": "inconclusive: 99.9%"}
{"smiles": "CCC(=O)N(C)C[C@H]1Oc2cc(C#CCN(C)C)ccc2S(=O)(=O)N([C@@H](C)CO)C[C@@H]1C", "inhibition": "inconclusive: 99.7%"}
{"smiles": "Cc1cccc(S(=O)(=O)N2C[C@H](O)COC[C@@H]3O[C@H](CC(=O)Nc4ccc(-c5ccccc5)cc4)CC[C@H]32)c1", "inhibition": "active: 107%"}
{"smiles": "CN(C)c1ccc2c(c1)[C@@H]1C[C@H](CC(=O)NCc3ccc(Oc4ccccc4)cc3)O[C@H](CO)[C@@H]1O2", "inhibition": "inactive: 12.3%"}
{"smiles": "COc1cccc(NC(=O)N(C)C[C@@H]2Oc3cc(C#Cc4ccccc4)ccc3S(=O)(=O)N([C@H](C)CO)C[C@@H]2C)c1", "inhibition": "inconclusive: 96.1%"}
{"smiles": "C[C@@H]1CN([C@@H](C)CO)S(=O)(=O)c2ccc(-c3ccccc3F)cc2O[C@@H]1CN(C)Cc1cccnc1", "inhibition": "inactive: 82.1%"}
{"smiles": "CCC(=O)N1CC[C@H]2[C@@H]1c1cc(-c3ccc(F)cc3)ccc1N(C)[C@H]2CO", "inhibition": "inactive: 71.4%"}
{"smiles": "C[C@H](CO)N1C[C@H](C)[C@@H](CN(C)C(=O)Nc2ccnc(N3CCOCC3)c2)OCc2ccccc2-c2ccccc2C1=O", "inhibition": "inconclusive: 98.4%"}
{"smiles": "Cc1ccc(S(=O)(=O)Nc2ccc3c(c2)C(=O)N([C@@H](C)CO)C[C@@H](C)[C@@H](CN(C)Cc2ccc4c(c2)OCO4)OCCCC[C@H](C)O3)cc1", "inhibition": "inconclusive: 97.2%"}
{"smiles": "C[C@@H]1CN([C@H](C)CO)S(=O)(=O)c2ccc(C#CCC3CCCC3)cc2O[C@@H]1CN(C)C(=O)c1ccccn1", "inhibition": "inactive: 29.3%"}
{"smiles": "CC(C)CC#Cc1ccc2c(c1)O[C@@H](CN(C)CC1CCOCC1)[C@@H](C)CN([C@@H](C)CO)S2(=O)=O", "inhibition": "inconclusive: 95.6%"}
